# From the supplement of paper PMC3334620
# Whole data set: some 33,000 sequences, median “E-score (-0.5 to 0.5)” near -0.035, cut for the highest 2% near 0.34. The list shows a part of the results.
# Molecular target: T1, Mot3 (UniProt P54785)
# T1 sequence: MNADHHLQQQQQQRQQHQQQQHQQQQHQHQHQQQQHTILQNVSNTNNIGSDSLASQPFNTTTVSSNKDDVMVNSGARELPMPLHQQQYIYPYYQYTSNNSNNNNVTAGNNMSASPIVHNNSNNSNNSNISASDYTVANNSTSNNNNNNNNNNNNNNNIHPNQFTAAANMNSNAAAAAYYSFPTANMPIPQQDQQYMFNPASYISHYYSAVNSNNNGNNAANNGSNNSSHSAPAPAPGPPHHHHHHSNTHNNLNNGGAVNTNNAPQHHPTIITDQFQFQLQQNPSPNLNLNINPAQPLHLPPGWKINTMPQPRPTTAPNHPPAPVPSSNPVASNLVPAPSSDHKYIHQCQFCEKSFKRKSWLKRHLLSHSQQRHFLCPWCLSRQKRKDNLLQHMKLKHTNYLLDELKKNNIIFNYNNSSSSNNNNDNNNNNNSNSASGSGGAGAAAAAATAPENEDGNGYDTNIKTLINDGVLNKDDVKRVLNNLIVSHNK
# Assay: PBM E-score (8-mer binding enrichment) (E-score (-0.5 to 0.5)); higher = stronger / more preferred TF binding; most listed sequences are background and not binding sites
# Conditions: protein concentration: 200 nM; construct: GST-full length
# How it was run: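 Detection of bound protein used fluorescent anti-GST, with scans normalised by masliner. The proteins were GST-tagged yeast transcription factors applied at about 100-200 nM to universal all-10-mer Agilent arrays made double-stranded by primer extension. Each ungapped eight-base word, pooled with its reverse complement, was scored with an E-score from the Universal PBM Analysis Suite.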
row,Sequence,PBM E-score
1,ACCCCGGT,-0.238
2,CCTACAGA,-0.0773
3,ATCCTAGG,-0.0611
4,AGCCGAAG,-0.15
5,GAGCGTAC,-0.132
6,AGCGATTA,-0.0748
7,ATTGCCAC,-0.0828
8,GAACGTTC,0.0123
9,CTGAAAAG,0.0248
10,ATCCATGA,-0.196
11,CAGGACCA,-0.2
12,CCGTGGCC,-0.31
13,CCTTGCAC,0.00446
14,CTGAGCAA,0.11
15,AAGACGGT,-0.302
16,CCGGTGGC,-0.431
17,ACCTTATC,0.146
18,GCCTTCTA,0.197
19,AGCCTCAA,-0.265
20,GTTTTTGA,0.0827
21,ATGTACTC,0.189
22,ACGGCATC,0.00294

row,Sequence,PBM E-score
1,ACCCAATG,-0.122
2,AACTTCGT,-0.00486
3,CCCACCCG,-0.171
4,GTTGTGCA,0.046
5,TCAGCTCA,-0.138
6,AAAGTCTG,-0.0774
7,CTCCGGTA,0.0872
8,CTGTTCAC,-0.00516
9,CATCAATG,-0.104
10,CACTGACA,0.177
11,AAGGAATC,0.0777
12,GTTAGCGA,0.0329
13,ACACCTGA,0.21
14,ACAGGCAG,0.239
15,CTCCGCTC,-0.0469
16,ACACGGCA,0.25
17,ATGCTTCC,-0.188
18,ATTACCCG,-0.0107
19,AGTGAGGA,-0.204
20,AAAAGCCC,-0.259
21,AAAGCTTG,0.151
22,GGGTTCTA,-0.176

row,Sequence,PBM E-score
1,CCTTACCC,-0.144
2,GCGCAGGA,-0.0722
3,CATACGAG,0.0424
4,AATACCCT,-0.0878
5,CTTCTATA,0.157
6,GCTTTGCC,0.0869
7,AGCGGCGA,-0.228
8,AGTCAATA,-0.0409
9,AAATTCTA,0.113
10,ACGGATCA,0.0935
11,CCGGTATA,-0.0946
12,GCTTCCAA,-0.0912
13,AAGGTTGT,0.115
14,CCCGCACA,-0.144
15,GCAAAGTA,0.126
16,TCCCCACA,-0.274
17,AACCTGGG,0.0477
18,TTAACTAA,0.212
19,GTTTCCAA,-0.12
20,ATGCGCAG,-0.301
21,ATAGGATA,0.00177
22,AGTCCCTA,-0.287

row,Sequence,PBM E-score
1,GGGTCAAA,-0.0462
2,GACTAAAA,-0.165
3,AACTTACC,-0.0117
4,ACGTATAG,0.0753
5,CTAACAAC,0.19
6,CGAATATA,0.0883
7,CGATCAGA,-0.15
8,AGTACTTG,0.174
9,TAATTGGA,0.103
10,AAGTGATA,-0.0472
11,AAGTTTCG,-0.0327
12,ACCTCAAT,0.0421
13,TAAAATCA,0.135
14,CGACCGCC,-0.228
15,CGGGCACA,0.0796
16,GCCGATAA,-0.144
17,CTCCAGGA,0.0168
18,CACGGAGA,-0.201
19,AACATGTT,0.387
20,GGAGCAAA,-0.0479
